Experimental findings from ChEMBL document CHEMBL1201862, “PubChem BioAssay data set” (2004) are described below.

Molecules are shown by their SMILES.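 Five compound concentrations were applied to cells in 96-well plates for 48 hours; endpoints were derived by simple linear interpolation of the resulting dose-response curve. GI50 marks 50% less growth.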 The source made the active and inactive calls. Rule as the data show it: active = GI50 up to about 1.1 µM and inactive = higher. Where only a bound is given, the exact number is not on record here.

The assay relates to NCI-H322M. In words: NCI-60 cell line screen, 48 h.
On to `COc1cc(OC)cc(-c2nc(O)c3ccccc3n2)c1`, for which the GI50 is inactive: > 100 µM.
To `CN(C)c1cccc(-c2cc(O)c3ccccc3n2)c1` belongs inactive: 31.4 µM.
As for `COC(=O)C1CCC(=O)N1C(c1ccc(OC)cc1)c1cc(OC)c(OC)c(OC)c1` (centres undefined), the GI50 is active: 0.525 µM.
For `CSc1ccc(NC(=O)C2CCCCC2C(=O)O)cc1` (centres undefined) the value was inactive: > 100 µM; for `Cc1c(C(=O)O)n2cnnc2c2ccccc12`, inactive: > 100 µM.
For `CN(C)c1ccc(/C=N\NC(=O)Nc2cccc3ccccc23)cc1`, the GI50 is inactive: 15.6 µM.
Regarding `C=C1C(=O)OC2C1CC[C@H](C)C13OC(=O)CC1[C@@]23C` (some centres undefined), the GI50 was inactive: > 100 µM.
On to `c1ccc2c(c1)Nc1nc3nonc3nc1N2`, for which the GI50 was inactive: > 100 µM.
As for `C=C1CC(c2ccc(OCCCN3C(=O)c4ccccc4C3=O)c(OC)c2)OC1=O` (centres undefined), the GI50 was inactive: 17.7 µM.
Regarding `Cc1ccc(NC(=S)SCCC(=O)O)cc1`, the GI50 is inactive: > 100 µM.
As for `CC(=O)c1[nH]c(Nc2ccc(C)cc2)c(C(=S)Nc2ccccc2)c1N`, the GI50 was inactive: 18.1 µM.
To `c1ccc2c(c1)NCc1cc3ccccc3nc1O2` belongs inactive: > 100 µM; to `COc1cc(-c2cccs2)sc1-c1cccs1`, inactive: 35.6 µM; to `O=C(O)CCSC1=NCCN1`, inactive: > 100 µM.
To `CC(=O)/N=C1/N(/C=C2\C(=O)Oc3ccccc3C2=O)C(=O)/C(=C/c2ccc(Cl)cc2Cl)N1C` belongs inactive: > 100 µM; to `CCOC(OC1=CCCC1)C(C)[Se]c1ccccc1` (centres undefined), inactive: > 100 µM.
To `C[n+]1cccc(/C=C/c2ccc3cccc(O)c3n2)c1` belongs inactive: > 100 µM; to `O=C(O)CC1C(=O)OC2C3COC(=O)c4cc(O)c(O)c(O)c4-c4c(cc(O)c(O)c4O)C(=O)OC2C(OC(=O)c2cc(O)c(O)c4c2C1C(O)C(=O)O4)C(OC(=O)c1cc(O)c(O)c(O)c1)O3` (centres undefined), inactive: 69.7 µM; to `FC1(F)[Se]C2C3CCC(C3)C2C1(F)F` (centres undefined), inactive: 65.5 µM.
Regarding `O=C(NCCCCCCNC(=O)NC1OCC(O)C(O)C1O)NC1OCC(O)C(O)C1O` (centres undefined), the GI50 is inactive: > 100 µM.
For `CC(=O)n1nc(-c2ccc3ccccc3c2)nc1C` the value was inactive: 39.9 µM.
With `O=C(N/N=C\C=C\c1ccc([N+](=O)[O-])o1)C(=O)N/N=C\C=C\c1ccc([N+](=O)[O-])o1`, the GI50 was inactive: > 100 µM.
For `Cc1ccc(OCC2OC(n3cnc4nc(Cl)nc(Cl)c43)CC2Oc2ccc(C)cc2)cc1` (centres undefined) the value was inactive: 15.6 µM; for `CC(C)Cn1cnnc1NS(=O)(=O)c1cc(C(=O)NN)c(Cl)cc1S`, inactive: > 10 µM; for `CC(NC(=O)C(C)C(=O)Nc1ccc(C(F)(F)F)cc1)C(N)=O` (centres undefined), inactive: > 100 µM.
For `COC(=O)/C=C1\C(CO[Si](C)(C)C(C)(C)C)OC(n2ccc(=O)[nH]c2=O)C1O` (centres undefined) the value was inactive: 17.3 µM; for `CCCCCCCCCCCCOC(=S)NCCCC`, inactive: 47.1 µM; for `COc1ccc(OC)c(-c2cn3c(n2)sc2ccccc23)c1`, inactive: > 100 µM.
For `CC(=O)Oc1cc(Cl)c(C)c2c1[C@H]1CC[C@]3(C)[C@@H](OC(C)=O)CC[C@H]3[C@@H]1CC2` the value was inactive: > 100 µM; for `CC(C)(C)C(=O)OCC1OC(N=[N+]=[N-])C(OC(=O)C(C)(C)C)C(OC(=O)C(C)(C)C)C1OC(=O)C(C)(C)C` (centres undefined), inactive: > 100 µM.
`CC(=O)c1c2c(cc3c1CC1(Cc4cc5c(cc4C1=O)CCC5)C3)CCC2` (centres undefined): the GI50 was inactive: > 100 µM.
In the case of `CCCC(=O)Oc1ccc2c(C)cc(=O)oc2c1OC(=O)CCC`, the GI50 was inactive: 34.1 µM.
In the case of `N#Cc1ccnc(C(=O)N2CCCC2C(=O)O)c1` (centres undefined), the GI50 is inactive: > 100 µM.
For the compound `O=C(/C=C/c1cccc([N+](=O)[O-])c1)c1ccc([N+](=O)[O-])cc1`, the GI50 is inactive: > 100 µM.
To `Nc1n/c(=N\c2ccccc2)ss1` belongs inactive: > 100 µM; to `O=C1C2Cc3ccccc3CN2C(=O)N1CCN1CCCC1` (centres undefined), inactive: > 100 µM.
Consider `O=C1Nc2ccccc2/C1=N/Nc1ncccc1[N+](=O)[O-]`, for which the GI50 is inactive: 14 µM.
With `CCc1cccc(C)c1N1C(=O)C(=O)C(c2nc3ccccc3o2)C(=O)C1=O`, the GI50 is inactive: > 100 µM.
For the compound `CC1(SCC(N)C(=O)O)CC(=O)NC1=O` (centres undefined), the GI50 is inactive: > 100 µM.
For `CN1CCN=C1c1nnn(-c2ccc([N+](=O)[O-])cc2)c1-c1ccccc1` the value was inactive: > 100 µM.
With `CCCCC(N)CSSCC(N)CCCC` (centres undefined), the GI50 was inactive: 71.1 µM.
To `CC(=N/NC(=S)N1CCCCC1)/C(C)=N\NC(=S)N1CCCCC1` belongs inactive: 1.75 µM; to `CNCCNc1ccc2c3c(nn2CCNCCO)-c2c(O)ccc(O)c2C(=O)c13`, active: 0.343 µM.
With `CCOC(=O)NC(Nc1c(F)c(F)c(F)c(F)c1F)(C(F)(F)F)C(F)(F)F`, the GI50 is inactive: > 100 µM.
For `O=C(OCC(Cl)(Cl)Cl)O[C@@H]1CCCC1(c1ccccc1)c1ccccc1` the value was inactive: > 100 µM; for `CCCNCc1nc2ccc(Br)cc2c(=O)n1CCC`, inactive: 17.4 µM.
To `N/C(=N\c1ccccc1Cl)c1ccccc1N` belongs inactive: > 100 µM; to `C=C1C(=O)O[C@H]2C1C[C@H](O)/C(C)=C/CC[C@@]1(C)O[C@H]21` (some centres undefined), inactive: 17.9 µM.
For `CN(CCCN1C(=O)c2cccc3cc([N+](=O)[O-])cc(c23)C1=O)CCN(C)CCCN1C(=O)c2cccc3cc([N+](=O)[O-])cc(c23)C1=O` the value was inactive: 27.7 µM; for `CCC/C(Cl)=N\OC(=O)Nc1ccc(Br)cc1`, inactive: 14.5 µM; for `COc1cc(C(=O)Nc2cccc3ccccc23)c(Br)c(OC)c1OC`, inactive: > 100 µM.
Turning to `CCOP(=O)(OCC)OC1CC(n2cnc3c(N(CC)CC)ncnc32)OC1CO[Si](C)(C)C(C)(C)C` (centres undefined), the GI50 was inactive: 18.5 µM.
For `CC(=O)OCc1cc2c(s1)C(=O)c1sccc1C2=O` the value was active: 0.617 µM; for `Cc1cn(Cc2cccc(C3=NCCCN3)c2)c(=O)n(Cc2cccc(C3=NCCCN3)c2)c1=O`, inactive: > 100 µM.
`NC(Cc1c[nH]c2cc([N+](=O)[O-])ccc12)C(=O)O` (centres undefined): the GI50 was inactive: > 100 µM.
To `CC(=O)Nc1ccc(C(O)/C(=N/N)c2nc3ccc(Cl)cc3nc2O)cc1` (centres undefined) belongs inactive: > 100 µM.
With `Nc1nc2c(ncn2Cc2ccc(CO)cc2)c(=O)[nH]1`, the GI50 is inactive: > 100 µM.
To `CC1=NN(c2ccccc2)C(=O)C1/N=N/c1ccc([As](=O)(O)O)c(O)c1` (centres undefined) belongs inactive: > 100 µM; to `COc1ccc([C@@H]2C[C@@H]3C(=O)OC(=O)[C@@H]3c3c2c2ccccc2n3C)cc1`, inactive: > 100 µM.
For `C[C@]12CC[C@H](O)CC1=CC[C@@H]1[C@@H]2CC[C@]2(C)C(=O)/C(=C/c3ccc([N+](=O)[O-])cc3)C[C@@H]12`, the GI50 is inactive: 5.14 µM.
For the compound `Cc1cn(CC2=NCCN2)c(=O)[nH]c1=O`, the GI50 is inactive: > 100 µM.
Regarding `CCCCCCCCCCCC1CCCC(C)N1` (centres undefined), the GI50 is inactive: 87.7 µM.
For `O=C(NN=C(c1ccccc1)c1ccccc1)/C(O)=C/C(=O)c1ccc(Cl)cc1`, the GI50 is inactive: 32 µM.
As to `COC1/C=C\C=C(/C)C(=O)NC2=CC(=O)C(O)=C(CC(C)CC(OC)C(O)C(C)/C=C(\C)C1OC(N)=O)C2=O` (centres undefined), the GI50 is inactive: 9.89 µM.
To `CC(C)OP(=O)(c1ccccc1)c1ccc2c(c1)OCCOCCOCCOCCO2` (centres undefined) belongs inactive: > 100 µM; to `O=C(Nn1c(-c2ccccc2)nc2ccccc2c1=O)c1ccc(O)cc1`, inactive: > 100 µM.
For `OC(/C(=N/c1ccccc1)c1ccccc1)c1ccccc1` (centres undefined) the value was inactive: 15.5 µM.
To `Cc1ccc(-c2nc3n(c2/C=N\N=C(N)N)CCS3)cc1` belongs inactive: 17.1 µM.
In the case of `CN(C)C(=O)Nc1cc2c3c(c1)CCCN3CCC2`, the GI50 is inactive: > 10 µM.
For `CSc1nc(C#N)c(/N=C\N(C)C)n1C`, the GI50 was inactive: > 100 µM.
For `OCC(O)COc1ccc(Br)cc1` (centres undefined) the value was inactive: > 100 µM; for `C1=CC=C2NCCC/N=C3/C=CC=CC=C3NCCC/N=C\2C=C1`, inactive: > 100 µM.
To `c1ccc(C2CC(c3ccc4ccccc4c3)=Nc3ccccc3S2)cc1` (centres undefined) belongs inactive: 20.9 µM.
For `CC(C)[C@](O)(C(=O)OCC1CC[N+]2([O-])CC[C@@H](O)C12)[C@H](C)O` (some centres undefined) the value was inactive: > 375 µM; for `C/C=C/c1cc2c(c(=O)o1)C(=O)[C@@H](O)[C@H](C)O2`, inactive: 22 µM; for `CN(C)C(=S)/N=c1\ssc(=S)n1Cc1ccccn1`, inactive: > 22.5 µM.
Turning to `COc1cc(N(CCC#N)CCC#N)ccc1C(/N=N/c1cccc([N+](=O)[O-])c1)=N\NC(=O)c1ccc(C)cc1`, the GI50 was inactive: > 100 µM.
For `Nc1ccn(C2CC3OCC3O2)c(=O)n1` (centres undefined) the value was inactive: 96.6 µM; for `CCOC(=O)CC[C@@H](NC(=O)c1ccc(N[C@@H]2c3cc4c(cc3C(c3cc(OC)c(O)c(OC)c3)C3C(=O)OC[C@@H]32)OCO4)cc1)C(=O)OCC` (some centres undefined), active: 0.181 µM; for `CC1OC2=N[C@@H]1C(=O)N[C@@H](Cc1ccccc1)C1=N[C@H](C(=O)N[C@@H](Cc3ccccc3)C3=N[C@H](C(=O)N[C@H]2Cc2ccccc2)C(C)O3)C(C)O1` (some centres undefined), inactive: 60.8 µM.
As for `COc1c(O)cc(/C=C/c2cc(O)cc3c2[C@@]2(C(=O)O3)c3c(O)cc(O)cc3OC2c2cccc(O)c2)cc1O` (some centres undefined), the GI50 is inactive: > 100 µM.
For `c1ccc2c(c1)Sc1ccccc1N2C1CN2CCC1CC2` (centres undefined) the value was inactive: 16.5 µM.
For `Cc1ccc(S(=O)(=O)NC(=O)NCCc2ccccc2)cc1` the value was inactive: > 100 µM; for `Cc1cc(/N=N/c2ccccc2C)ccc1N`, inactive: 29.5 µM.
